Hit rate of the full screen: of about 410,000 compounds, about 5,000 (1.2%) were called active. The inconclusive results got no clear call from the source; some entries with a clear call stand among them for comparison. Calls follow the shape of the dose curve; as a rule, active = well fitted inhibition curve with a large enough effect; inconclusive = small, poorly fitted or top-dose-only effect; inactive = no such curve, though single readings can be large or run the other way. Potencies of inconclusive entries are doubtful fits and often do not repeat.
Assay: qHTS for Inhibitors of TGF-b; also: nearly all actives have a fitted effect of over 65% in size
Conditions: HepG2 CAGA-GFP TGF-b/SMAD3 reporter, GFP fluorescence, 18 h, TGF-beta stimulated, 500 pg/mL final; series mostly up to 46.1 µM
In short: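 HEPG2 CAGA-GFP, 1000 cells/well; 2 h settle, 37 C; cpd via pin tool; TGF-b 500 pg/mL final; 18 h, 37 C; GFP imaging ex488/em500-530; %Activity normalised to -TGF-b and +DMSO controls; CRC fit, curve class.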
Potency is read from the fitted curve at half-maximal effect; tags tell the direction and shape of the fitted curve.

Structure (SMILES) | Potency
C[C@@H]1CN([C@@H](C)CO)C(=O)CCCn2nncc2CO[C@@H]1CN(C)C(=O)Nc1ccc2c(c1)OCO2 | inactive
COc1ccc(NC(=O)/C(C#N)=C\C=C\c2ccco2)cc1 | inconclusive: 35.5 µM [inhibitor, single point]
Cc1cc(Cn2nnc3ccccc32)c(O)c(C(C)(C)C)c1 | inconclusive: 15.8 µM [inhibitor, single point]
CCc1cc(C(=O)N2CCOCC2)c(NC2=NS(=O)(=O)c3ccccc32)s1 | inconclusive: 1 µM [inhibitor, partial curve, poor fit]
COc1ccc(C)cc1NC(=O)CCCNC(=O)Cn1cnc2sc(C)c(C)c2c1=O | inactive
CCn1c2ccccc2c2cc(/C=C(/C#N)C(N)=S)ccc21 | active: 3.98 µM
Cc1noc2ncnc(Oc3cc(Cl)ccc3Cl)c12 | inconclusive: 11.2 µM [inhibitor, partial curve]
COc1ccc(OC)c(CCNC(=O)CC2(CC3=NS(=O)(=O)c4ccccc4N3)CCCC2)c1 | inconclusive: 2.82 µM [inhibitor, full curve, poor fit]
O=C(NNc1ccccc1)c1ccccc1 | inconclusive: 0.708 µM [inhibitor, partial curve, poor fit]
COc1ccc(/C=C/C(=O)c2ccc(C)c([N+](=O)[O-])c2)cc1O | active: 17.8 µM
CCOC(=O)c1cc(-c2ccc(OC)c(S(=O)(=O)Nc3ccc(OC)cc3OC)c2)on1 | inconclusive: 35.5 µM [inhibitor, single point]
Cc1noc(C)c1NC(=O)Nc1cccc2c1O[C@H](CN(C)S(=O)(=O)c1ccc(F)cc1)[C@@H](C)CN([C@H](C)CO)C2=O | inconclusive: 28.2 µM [inhibitor, single point]
COc1ccccc1CN(Cc1nc2ccccc2c(=O)[nH]1)S(=O)(=O)c1ccc(C)cc1 | inconclusive: 35.5 µM [inhibitor, single point]
C=C(C)COc1ccc2c3c(c(=O)oc2c1OCC(=C)C)CCC3 | inconclusive: 15.8 µM [inhibitor, single point]
CSCCC(NC(=O)c1ccccc1Br)C(=O)NC(C)CCc1ccccc1 (configuration not stated) | inconclusive: 7.08 µM [inhibitor, partial curve, poor fit]
O=C1c2ccccc2S(=O)(=O)N1Cc1nnc(-c2ccccc2Br)o1 | inconclusive: 17.8 µM [inhibitor, single point]
O=C(Nc1ccc(Cl)c(C(F)(F)F)c1)[C@@H]1CC=C[C@@H]2CCN(Cc3ccc(Cl)c(Cl)c3)C(=O)[C@@H]21 | inconclusive: 12.6 µM [inhibitor, partial curve, poor fit]

— PubChem BioAssay AID588855 (National Center for Advancing Translational Sciences (NCATS), 2011)
